In article PMC4336329 (PLoS ONE, 2015):
Hit rate of the full screen: of about 310,000 compounds, about 14,000 (4.5%) showed an effect of 50% or more. The effect is printed as a negative number. The list shows a part of the results. Where a SMILES comes first, the peptide text is derived from it. The star is where a group is joined. Cbz = O=C(OCc1ccccc1)*

Biological target: human ether-à-go-go-related gene (hERG) potassium channel (human, UniProt Q12809)
Experiment: primary screen, population patch clamp on CHO cells stably expressing hERG
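Also: peak tail current of the secondary pulse compared with the same well before compound.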

Sequence of human ether-à-go-go-related gene (hERG) potassium channel (Q12809 whole entry, looked up): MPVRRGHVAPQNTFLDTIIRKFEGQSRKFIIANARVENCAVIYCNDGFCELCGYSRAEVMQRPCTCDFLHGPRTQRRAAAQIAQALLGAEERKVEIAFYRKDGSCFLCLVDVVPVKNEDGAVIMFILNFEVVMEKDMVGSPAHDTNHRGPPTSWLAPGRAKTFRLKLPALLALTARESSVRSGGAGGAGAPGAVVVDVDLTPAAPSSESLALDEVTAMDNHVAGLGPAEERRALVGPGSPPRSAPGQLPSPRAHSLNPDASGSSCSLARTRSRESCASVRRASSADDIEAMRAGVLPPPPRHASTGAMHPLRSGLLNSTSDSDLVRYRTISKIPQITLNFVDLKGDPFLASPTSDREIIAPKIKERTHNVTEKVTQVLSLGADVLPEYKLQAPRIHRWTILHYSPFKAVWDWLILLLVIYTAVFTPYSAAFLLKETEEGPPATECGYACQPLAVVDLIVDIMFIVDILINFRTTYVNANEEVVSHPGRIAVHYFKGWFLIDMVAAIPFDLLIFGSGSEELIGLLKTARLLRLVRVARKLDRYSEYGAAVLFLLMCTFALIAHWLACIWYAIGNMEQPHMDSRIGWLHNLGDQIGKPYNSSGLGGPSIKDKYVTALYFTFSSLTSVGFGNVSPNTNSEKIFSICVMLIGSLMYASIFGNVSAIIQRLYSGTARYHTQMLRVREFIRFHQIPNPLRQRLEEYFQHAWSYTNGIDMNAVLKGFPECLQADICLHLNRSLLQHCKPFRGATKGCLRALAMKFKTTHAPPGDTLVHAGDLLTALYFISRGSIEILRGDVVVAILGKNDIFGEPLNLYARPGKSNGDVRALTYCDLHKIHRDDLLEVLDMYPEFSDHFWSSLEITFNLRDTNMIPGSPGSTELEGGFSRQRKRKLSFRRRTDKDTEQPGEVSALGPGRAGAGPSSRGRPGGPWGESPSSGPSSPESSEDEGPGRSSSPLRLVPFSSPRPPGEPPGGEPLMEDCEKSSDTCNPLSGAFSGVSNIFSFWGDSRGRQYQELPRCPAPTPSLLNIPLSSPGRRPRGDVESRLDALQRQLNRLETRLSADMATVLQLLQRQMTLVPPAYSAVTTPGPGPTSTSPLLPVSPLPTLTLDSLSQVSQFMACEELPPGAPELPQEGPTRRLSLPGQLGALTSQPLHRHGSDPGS

| Structure (SMILES) | hERG current change (%, negative = inhibition) at 10uM [%] |
| --- | --- |
| CC(=O)Nc1ccc(/C(C)=N/NC(=O)c2ccc(CN3CCOCC3)cc2)cc1 | 25.2 |
| CCOC(=O)C1CCCN(c2c(N3CCN(c4ccccn4)CC3)c(=O)c2=O)C1 (centres unmarked) | -55.5 |
| CC(C)CN(C(=O)COC(=O)CNC(=O)c1sc2ccccc2c1Cl)C1CCS(=O)(=O)C1 (centres unmarked) | -20 |
| COc1cccc(CN2CC(C(=O)N(C)CC3CCOCC3)CCC2=O)c1 (centres unmarked) | 22.4 |
| Cn1ncc([N+](=O)[O-])c1C(=O)N/N=C/c1ccc(F)cc1 | -9.05 |
| COc1ccc(Cc2nnc(SCC(=O)c3ccc(OC)cc3)o2)cc1 | 2.15 |
| Cc1c(C)n(Cc2ccccc2)c2ccc(C(=O)NCCCN3CCOCC3)cc12 | -14.9 |
| Cc1cccc(NC(=S)Nc2ccccn2)c1C | 2.01 |
| COCc1ccc(C(=O)N(C)CC2CCCN(CCc3ccc(Cl)cc3)C2)o1 (centres unmarked) | -78.9 |
| O=S(=O)(Nc1cccc(-c2ccc3nncn3n2)c1)c1ccc(Cl)s1 | -27.4 |
| CCN(CC)S(=O)(=O)c1ccc(OC)c(NS(=O)(=O)Cc2ccccc2)c1 | -15 |
| O=C1N[C@@H](Cc2ccccc2)C(=O)N2[C@@H]1C[C@]1(Br)c3ccccc3N(S(=O)(=O)c3ccccc3)[C@H]21 | -16.5 |
| CCn1c(=NC(=O)c2cccc(N3C(=O)CCC3=O)c2)sc2c(C)ccc(OC)c21 | 4.49 |
| CCCOc1ccc(-c2nc(OCC)c3ccccc3n2)cc1 | 1.62 |
| O=C(NC(=S)Nc1ccccc1N1CCOCC1)c1cccc([N+](=O)[O-])c1 | 17.6 |
| COc1cc(Cl)ccc1OCc1cc(C(=O)N2CC[C@@H]3CCCC[C@H]3C2)no1 | 15.4 |
| O=C(NCc1ccccn1)c1ccc(N2CCCC2)c([N+](=O)[O-])c1 | -9.15 |
| CCc1ccccc1NC(=O)c1ccccc1Sc1ccc([N+](=O)[O-])cc1Cl | 10.8 |
| O=C(O)c1cc(-c2cccs2)nc2ccc(F)cc12 | 13.2 |
| COC(=O)NNC(=O)COc1ccccc1C | 11.3 |
| CCN1CCN(c2ccc(S(=O)(=O)N3CCCCC3)cc2NC(=O)Cc2c(Cl)cccc2Cl)CC1 | -38.6 |
| C=CCC(C)(NCc1ccccc1)c1ccco1.Cl (centres unmarked) | 9.19 |

| Structure (SMILES) | hERG current change (%, negative = inhibition) at 10uM [%] |
| --- | --- |
| Cn1c(=O)c2cc(S(=O)(=O)NCCC(=O)NC3CCCCCC3)ccc2n(C)c1=O | -6.68 |
| COC(=O)C(C)(C(=O)OC)c1ccccc1[N+](=O)[O-] | 7.93 |
| COc1ccc(/C=N/NS(=O)(=O)c2ccc(C)cc2)cc1 | 11.1 |
| CCOC(=O)c1c(-n2cnnn2)sc(C)c1C | -6.65 |
| O=C(Nc1cccc2c1CCCC2)C1CCN(C(=O)NC2CCCCC2)CC1 | 6.54 |
| COc1ccc(NC(=O)CSc2n[nH]c(=O)n2C2CC2)cc1OC | 9.93 |
| CC(=O)c1sc(-c2ccccc2)cc1N | 5.23 |
| CCOc1ccc(/C=C/C(=O)c2ccccc2)cc1 | 7.44 |
| O=C(CCN1CCOCC1)Nc1ccc(Br)cc1C(=O)c1ccccc1 | -19.6 |
| Cc1ccc2c(C)c(C(=O)NCCN3CCOC3=O)oc2c1C | 0.131 |
| C/C(CC(=O)Nc1ccc(F)cc1)=N\NC(=O)COc1ccccc1 | -23.4 |
| Cc1ccc(C(=O)Nc2cccnc2Oc2ccc(Cl)cc2)cc1 | -9.13 |
| Cc1ccc2c(n1)sc1c(-c3ccc(Br)cc3)c(C#N)c(N)nc12 | 18.2 |
| COc1ccc(S(=O)(=O)NC(C)C(=O)Nc2ccc3c(c2)OCO3)cc1OC (centres unmarked) | 24.4 |
| COc1cc(-c2nnn(Cc3ccccc3C)n2)cc(OC)c1OC | 3.67 |
| COc1ccccc1NC(=O)C(=O)N1CCCC1 | 14.9 |
| COc1ccc(CCn2c(O)c(C=NCCN3CCCCC3)c(=O)[nH]c2=O)cc1OC | -13.6 |
| CC1Sc2ccc(S(=O)(=O)CCC(=O)N3CCCC3)cc2NC1=O (centres unmarked) | 16.4 |
| Cc1cc(C(=O)NC2CCCc3c2cnn3-c2ccc(C(C)(C)C)cc2)nn1C (centres unmarked) | 10.9 |
| CN(C)C=O.Cc1ccc(S(=O)(=O)N(C)C)cc1NC(=S)Nc1ccc2[nH]c(=O)[nH]c2c1 | 76.2 |
| Cc1ccc(S(=O)(=O)N(C)CC(=O)OCC(=O)Nc2ccccc2)cc1 | 14.5 |
| COC(=O)C1CCCN1C(=O)C1CCCN1C(=O)CNC(=O)OCc1ccccc1 (stereo not drawn) (Cbz-Gly-Pro-Pro-OMe; configuration not given here) | 12.3 |

| Structure (SMILES) | hERG current change (%, negative = inhibition) at 10uM [%] |
| --- | --- |
| COc1ccc2c(c1)C(C)=CC(C)(C)N2C(=O)CN1C(=O)CCC1=O | -3.34 |
| CCOC(=O)c1c(-c2ccccc2)csc1NC(=O)c1cc(-c2ccccc2OC)on1 | -1 |
| Cc1ccnc(N2C(=O)C3C4CC(C(Br)C4Br)C3C2=O)c1 (centres unmarked) | 15.1 |
| COc1ccc(C(C(=O)NCc2ccccc2)N(Cc2ccco2)C(=O)c2cnccn2)cc1 (centres unmarked) | -16.1 |
| Cn1c(CSCc2ccccc2Cl)nnc1SCC(=O)Nc1nccs1 | -12.3 |
| COc1ccccc1CNC(=O)CSc1nc(=O)n(Cc2ccncc2)c2c1CCC2 | 3.68 |
| Cc1ccc(C)c(C(=O)COc2ccccc2[N+](=O)[O-])c1 | 1.88 |
| Cc1ccc(S(=O)(=O)N2CCCCC2C(=O)O)s1 (centres unmarked) | 20.8 |
| Cc1ccc(C)c(NC(=S)NC(C)C(c2cccs2)N2CCOCC2)c1 (centres unmarked) | 8.4 |
| Cc1ccc(S(=O)(=O)N2CCCCC2)cc1NC(=O)CN1CC=C(c2ccccc2)CC1 | -12.5 |
| COc1ccccc1CC(=O)Nc1ccc2c(c1)CCC2 | 18.9 |
| O=C(Nc1ccnc(-c2cccnc2)n1)c1ccc(Cl)cc1 | -17.6 |
| CCCCOC(=O)c1cc(C)nc2ccc(Br)cc12 | 10.7 |
| Cc1nnc(SCC(=O)N2CCOCC2)[nH]c1=O | -1.12 |
| O=C(Nc1cccc(Cl)c1)c1cnn2cccnc12 | 7.19 |
| O=C(Nc1ccc(-c2nc3ccccc3o2)cc1)C1CCCO1 (centres unmarked) | -6.36 |
| Cc1ccc(C(CNS(=O)(=O)c2ccc(F)cc2)N2CCN(C)CC2)cc1 (centres unmarked) | -58.3 |
| Cc1cc(C(=O)N/N=C/c2ccc3c(c2)OCO3)c2ccccc2n1 | -6.41 |
| C=CC[C@@H]1C=C[C@H](O/N=C/[C@@H](NS(=O)(=O)c2ccc(C)cc2)[C@H](C)/C=C/CC(=O)OC)[C@@H](CO)O1 | 0.961 |
| Cc1ccc(/C=N/Nc2nc3ccccc3s2)o1 | -8.33 |
| CCCC(=O)Nc1ccccc1NC(=O)c1ccc(OC(C)=O)cc1 | 9.55 |
| CCn1c(C)c(C)c2cc(C(=O)NCCN3CCCCCC3)ccc21 | -25 |

| Structure (SMILES) | hERG current change (%, negative = inhibition) at 10uM [%] |
| --- | --- |
| CCOC(=O)c1cn2nc(SCc3ccccc3)nc2nc1C | -14.3 |
| Cc1ccc(/C=C2\SC(=S)N(CC(=O)Nc3ncc(Cc4ccccc4Cl)s3)C2=O)cc1 | -6.81 |
| Cc1ccc(NC(=O)C2CCCN2C(=O)NCc2ccccc2)cc1 (centres unmarked) | 0.117 |
| CCCCCc1nnc(NC(=O)CS(=O)(=O)Cc2ccccc2)s1 | 1.04 |
| COc1ccc(CCN(Cc2cc3ccc(C)cc3[nH]c2=O)C(C)=O)cc1OC | -65.1 |
| CCCCOC(=O)Cn1c(=O)c2c(nc(Br)n2Cc2ccccc2)n(C)c1=O | -4.05 |
| COc1ccc(-n2c(Cc3cccn3C)nnc2SCC(=O)Nc2ccccc2)cc1 | -19.5 |
| COCc1ccc(C(=O)N2CCCC(N(C)Cc3ccccc3)C2)s1 (centres unmarked) | -8.86 |
| NS(=O)(=O)c1ccc(N=Cc2c(O)n(-c3ccccc3)c(=O)[nH]c2=O)cc1 | 6.2 |
| COc1ccccc1CNC(=O)C1CCC(CNS(=O)(=O)c2ccc(C)cc2)CC1 (centres unmarked) | 25.9 |
| O=c1cc(CSc2nnnn2-c2ccccc2)[nH]c2[nH]n(-c3ccccc3)c(=O)c12 | -3.95 |
| Cc1ccc(C2CC(c3cccs3)=NN2C(=O)CSc2nc3ccccc3o2)cc1 (centres unmarked) | 4.94 |
| CCOc1ccccc1OCCOc1cccc(C(F)(F)F)c1 | 13.6 |
| Cc1onc(-c2ccccc2)c1C(=O)NNC(=S)NC(=O)c1ccc(Cl)cc1Cl | 12.3 |
| CC1=C(C(=O)Nc2ccccc2F)C(c2ccsc2)C2=C(CC(c3ccccc3)CC2=O)N1 (centres unmarked) | -11.8 |
| COc1cccc(NC(=O)c2cnc(SC)nc2)c1 | 12.4 |
| CC(C)C1N=C(c2ccc3c(c2)OCO3)CC(c2ccccc2O)N1 (centres unmarked) | -20.5 |
| O=C(CNC(=O)c1ccccc1Cl)Nc1ccncc1 | 1.41 |
| CCCCNC(=O)c1cccc(NC(=O)C(=O)c2ccccc2NC(C)=O)c1 | -19.1 |
| CCN(CC)S(=O)(=O)c1cccc(NC(=O)C2SC(=Nc3ccc(C)cc3C)C(C(=O)NCC3CCCO3)=C2N)c1 (centres unmarked) | 5.02 |
